Test results reported in the supplement of paper PMC10126150.
Values marked as one replicate rest on one cluster of the flow cell; about a third of the high ones do not repeat.

Each sequence was assayed on ATP (assay: switch fluorescence ratio, 500 uM ATP over buffer (Cy3 cluster intensity, sum of 5 cycles each) (fold (ratio)); higher = stronger signal-on switching upon ATP binding; sequences stand for … in TCGTCGGCAGCGTCAGATGTGTATAAGAGACAGTTTTTTTTTTTTTTTTTTTTTTTTT…TC). Conditions: aptamer strand: ATP DNA aptamer (quencher-CACCTGGGGGAGTATTGCGGAGGAAGG + anchor), 100 nM annealed; ATP concentration: 500 uM; one replicate.
How it was run: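 The fluorescence ratio divides summed target-cycle Cy3 intensity by summed buffer-cycle Cy3 intensity for each cluster and is averaged per switch-domain sequence. Cy3-labelled switching-strand clusters on a modified Illumina MiSeq flow-cell were annealed to 100 nM quencher-labelled ATP aptamer, then imaged in selection buffer and again after 15 min with 500 uM ATP at 22 °C. Five such cycles were run, with NaOH stripping and re-annealing between them, and clusters outside 100-1000 RFU were excluded.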
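Further: ATP exposure 15 min at 22 °C before imaging.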

Row | Sequence | switch fluorescence ratio
1 | CAATTGTTTT | 1.02
2 | CAATTTACGA | 1
3 | CAATTTAGGT | 1.04
4 | CAATTTGAGG | 0.984
5 | CAATTTGTTG | 0.969
6 | CACAAAAAAT | 1.04
7 | CACAAATTAG | 0.982
8 | CACAACCCTT | 0.987
9 | CACAACTTTG | 0.995
10 | CACAAGAAGG | 1.01
11 | CACAAGTTTC | 1.06
12 | CACAATGG | 1.16
13 | CACACCTGTA | 1.03
14 | CACACGCTCT | 1.04
15 | CACAGAACCG | 1.14
16 | CACAGACCTT | 1.24
17 | CACAGATGGC | 1.01
18 | CACAGATGGT | 1
19 | CACAGTCCGA | 1.01
20 | CACATAATGT | 1
21 | CACATACGTC | 1.47
22 | CACATAGGGC | 1.02
23 | CACATAGTGC | 1.04
24 | CACATCGCCC | 1.03
25 | CACATGCCAG | 0.912

Row | Sequence | switch fluorescence ratio
26 | CACATTAGGT | 0.992
27 | CACATTTCGG | 1.06
28 | CACCCATGG | 1.32
29 | CACCCCGAT | 1.18
30 | CACCGATACC | 1.46
31 | CACCGGTAAA | 1.07
32 | CACCGTTCTG | 1.02
33 | CACCTAGCT | 1.09
34 | CACCTCCAAG | 1.12
35 | CACCTCGCCC | 1.11
36 | CACCTGAATA | 1.02
37 | CACCTGCGGT | 1.02
38 | CACCTGTAGC | 1.15
39 | CACCTGTAGT | 1.02
40 | CACCTTAATA | 1.05
41 | CACCTTGTCT | 1.02
42 | CACGACAGGT | 1.16
43 | CACGACCCTG | 0.993
44 | CACGAGCTTC | 1.04
45 | CACGAGGACC | 0.975
46 | CACGCCGTAG | 0.999
47 | CACGCGAATA | 1.61
48 | CACGCTGATT | 1.04
49 | CACGGAAGAT | 1.04
50 | CACGGACCGG | 0.956

Row | Sequence | switch fluorescence ratio
51 | CACGGACGTA | 1.14
52 | CACGGAGGCC | 1.11
53 | CACGGATCGG | 0.994
54 | CACGGATTCC | 0.994
55 | CACGGCTTTC | 1.09
56 | CACGGGGACC | 1.01
57 | CACGGGTCTA | 1.02
58 | CACGGTGTTG | 1.05
59 | CACGTAAAAG | 1.7
60 | CACGTAGGCC | 1.04
61 | CACGTAGGTC | 1.03
62 | CACGTAGGTG | 1.16
63 | CACGTATTTA | 1.2
64 | CACGTCTCCC | 1.16
65 | CACGTCTCTA | 0.97
66 | CACGTGGCGT | 1.03
67 | CACGTGTTAG | 1
68 | CACGTTTTAC | 1.3
69 | CACTAATCAG | 1.04
70 | CACTAATTAT | 1.01
71 | CACTACATGT | 1.03
72 | CACTACCGAA | 1.03
73 | CACTAGGACA | 0.925
74 | CACTAGGGGC | 1.15
75 | CACTAGTATC | 1.02

Row | Sequence | switch fluorescence ratio
76 | CACTAGTCC | 1.62
77 | CACTATATTA | 1.09
78 | CACTCCAGCA | 2.68
79 | CACTCGGTCG | 1.05
80 | CACTCTGCAG | 3.19
81 | CACTGAGTTG | 0.999
82 | CACTGCCTTT | 1.05
83 | CACTGGTGAC | 1.03
84 | CACTGGTGCA | 1.16
85 | CACTGTTGGG | 0.975
86 | CACTTCCTTG | 1.19
87 | CACTTCTAGC | 0.995
88 | CACTTCTGAT | 1.01
89 | CACTTCTTC | 0.97
90 | CACTTCTTGG | 0.965
91 | CACTTGACAT | 1.11
92 | CACTTGGATG | 0.998
93 | CACTTGGGGC | 1.04
94 | CACTTGTTGG | 1.01
95 | CAGAAAATCA | 0.985
96 | CAGAAAATGT | 1.01
97 | CAGAAACCAG | 1.04
98 | CAGAACAACC | 1.05
99 | CAGAAGATAA | 1.02
100 | CAGAAGGATT | 1.02

Row | Sequence | switch fluorescence ratio
101 | CAGAATAATT | 0.996
102 | CAGAATTAAT | 1.01
103 | CAGACAATTA | 1.02
104 | CAGACAGGAA | 1.07
105 | CAGACAGTAT | 1.03
106 | CAGACCTAAA | 1.03
107 | CAGACCTTAA | 1.08
108 | CAGACCTTTC | 2.26
109 | CAGACTTGGG | 0.968
110 | CAGAGATAGT | 0.953
111 | CAGAGCAGGT | 1.13
112 | CAGAGCTCTG | 0.973
113 | CAGAGTACAG | 0.991
114 | CAGAGTGTGT | 0.964
115 | CAGATAAGTT | 0.982
116 | CAGATACGAC | 1.51
117 | CAGATATTGT | 0.974
118 | CAGATCCCAC | 1.01
119 | CAGATTCAAT | 1.02
120 | CAGATTCACG | 1
121 | CAGCAGGTGA | 2.24
122 | CAGCCACAAA | 1.14
123 | CAGCCAGA | 1.06
124 | CAGCCATAAT | 1.05
125 | CAGCCATTGC | 1.05

Row | Sequence | switch fluorescence ratio
126 | CAGCGAACGC | 0.996
127 | CAGCGACTTG | 0.936
128 | CAGCGCCTAT | 0.998
129 | CAGCGCGTTT | 1.04
130 | CAGCGGACTG | 0.953
131 | CAGCGGCCGC | 0.985
132 | CAGCGTATGC | 1.06
133 | CAGCGTCCCG | 1.07
134 | CAGCTAAAAA | 1.63
135 | CAGCTGCGAA | 1.1
136 | CAGCTGCTTG | 1.03
137 | CAGCTTGTGC | 1.01
138 | CAGCTTTGGG | 1.03
139 | CAGGAAGACT | 1.05
140 | CAGGACAACT | 1.08
141 | CAGGACCACC | 1.03
142 | CAGGACGAG | 1.02
143 | CAGGAGAAAC | 1.09
144 | CAGGAGGTGA | 1.06
145 | CAGGATTGAC | 1
146 | CAGGCAATCA | 1.17
147 | CAGGCACCGT | 1.03
148 | CAGGCAGATC | 1.07
149 | CAGGCATACG | 1.06
150 | CAGGCATGCA | 1.01

Row | Sequence | switch fluorescence ratio
151 | CAGGCATGT | 1.04
152 | CAGGCCCGTG | 0.971
153 | CAGGCCTTTT | 1
154 | CAGGCGGCCG | 1.03
155 | CAGGCGTTAA | 0.981
156 | CAGGCTCGAG | 0.974
157 | CAGGCTCTAC | 1.1
158 | CAGGGATTGG | 0.996
159 | CAGGGCCACA | 1.05
160 | CAGGGCCTAT | 0.998
161 | CAGGGCGAGG | 1.01
162 | CAGGGGTTCG | 0.962
163 | CAGGGTCTAG | 0.947
164 | CAGGGTGCC | 1.06
165 | CAGGGTTAAC | 1.05
166 | CAGGGTTACC | 1
167 | CAGGTCATAG | 0.97
168 | CAGGTGCTGA | 1.16
169 | CAGGTTGTCG | 0.953
170 | CAGTACAAAA | 0.95
171 | CAGTACATAA | 1.04
172 | CAGTACCTA | 1.03
173 | CAGTACTTAC | 1.17
174 | CAGTAGAAGA | 1.01
175 | CAGTAGACTG | 0.954

Row | Sequence | switch fluorescence ratio
176 | CAGTAGATAC | 1.66
177 | CAGTAGTCGT | 0.98
178 | CAGTATCCTC | 0.971
179 | CAGTATGGGC | 1.02
180 | CAGTCTTCT | 0.973
181 | CAGTCTTGGG | 1
182 | CAGTGAGCCG | 0.987
183 | CAGTGAGCTG | 0.969
184 | CAGTGAGGCA | 0.985
185 | CAGTGCACGC | 1.08
186 | CAGTGCGTTG | 0.97
187 | CAGTGGTGTT | 0.982
188 | CAGTGTAAGA | 0.979
189 | CAGTGTACTA | 1.1
190 | CAGTGTGAC | 0.99
191 | CAGTTAGAGC | 1.02
192 | CAGTTAGGCA | 0.949
193 | CAGTTATGGG | 0.981
194 | CAGTTCTCGG | 1.03
195 | CAGTTGAGCT | 1.02
196 | CAGTTGTCAA | 0.977
197 | CAGTTGTCAC | 1.04
198 | CAGTTTCCAC | 0.984
199 | CATAAAACGT | 1.03
200 | CATAAAGGGT | 1.04
